# Some of the results follow.
# B1: PhoQ; a variant is named by its letters at X, in order, P23837 (parent)
# chain: MKKLLRLFFPLSLRVRFLLATAAVVLVLSLAYGMVALIGYSVSFDKTTFRLLRGESNLFYTLAKWENNKLHVELPENIDKQSPTMTLIYDENGQLLWAQRDVPWLMKMIQPDWLKSNGFHEIEADVNDTSLLLSGDHSIQQQLQEVREDDDDAEMTHSVAVNVYPATSRMPKLTIVVVDTIPVELKSSYMVWSWFIYVLSANLLLVIPLLWVAAWWSLRPIEALAKEVRELEEHNRELLNPATTRELTSLVRNLNRLLKSERERYDKYRTTLTDLTHSLKTPLXXLQXXLRSLRSEKMSVSDAEPVMLEQISRISQQIGYYLHRASMRGGTLLSRELHPVAPLLDNLTSALNKVYQRKGVNISLDISPEISFVGEQNDFVEVMGNVLDNACKYCLEFVEISARQTDEHLYIVVEDDGPGIPLSKREVIFDRGQRVDTLRPGQGVGLAVAREITEQYEGKIVAGESMLGGARMEVIFGRQHSAPKDE
# Variants of: B1
# Test: enrichment ratio after two sorts for PhoP signalling (ratio (wild type AVST 3.29)); higher = more functional
# Details: with PhoP (E. coli)
row,Variant,enrichment ratio
1,GPPA,≤ 0.25
2,YLIY,≤ 0.25
3,WLLS,≤ 0.25
4,LWDH,≤ 0.25
5,NDLA,≤ 0.25
6,YPSM,1.37
7,DCCK,≤ 0.25
8,SNWG,≤ 0.25
9,FFWF,≤ 0.25
10,SVRN,≤ 0.25
11,TCQR,4.53
12,LMGV,≤ 0.25
13,PWDY,≤ 0.25
14,VGTC,≤ 0.25
15,PQYF,≤ 0.25
16,RRYL,≤ 0.25
17,CACW,≤ 0.25
18,FVEL,≤ 0.25
19,EGVN,≤ 0.25
20,SYSY,≤ 0.25
21,ASIQ,5.62
22,WTTG,≤ 0.25
23,VYNS,≤ 0.25
24,NRRG,≤ 0.25

row,Variant,enrichment ratio
1,VIGL,≤ 0.25
2,KFMN,≤ 0.25
3,QSNG,5.88
4,FDQF,≤ 0.25
5,TLPG,≤ 0.25
6,HSSG,≤ 0.25
7,KDVT,≤ 0.25
8,DCSA,≤ 0.25
9,LYIF,≤ 0.25
10,SHRG,≤ 0.25
11,LGCP,≤ 0.25
12,FWYY,≤ 0.25
13,NTVN,≤ 0.25
14,GHVK,≤ 0.25
15,SQIF,10.7
16,EFSM,≤ 0.25
17,PNVI,≤ 0.25
18,NASM,≤ 0.25
19,PFMP,≤ 0.25
20,RIPH,≤ 0.25
21,SNYD,≤ 0.25
22,TDAA,5.51
23,VICC,≤ 0.25
24,KLMS,≤ 0.25

row,Variant,enrichment ratio
1,WEPR,≤ 0.25
2,VVMF,≤ 0.25
3,EDAW,≤ 0.25
4,FRAL,≤ 0.25
5,LYMS,≤ 0.25
6,EFIW,≤ 0.25
7,AIAL,10.6
8,VNES,≤ 0.25
9,WHPN,≤ 0.25
10,RQGN,≤ 0.25
11,YISL,0.261
12,SNFL,≤ 0.25
13,PTYP,≤ 0.25
14,QMKV,≤ 0.25
15,EATF,≤ 0.25
16,LQHM,≤ 0.25
17,WTWF,≤ 0.25
18,FRCG,≤ 0.25
19,PHMQ,≤ 0.25
20,QDKG,≤ 0.25
21,ISRD,≤ 0.25
22,MMRE,≤ 0.25
23,YGTL,1.06
24,SGHV,≤ 0.25

row,Variant,enrichment ratio
1,MRRA,≤ 0.25
2,VELG,7.87
3,VGAV,2.51
4,KEQF,≤ 0.25
5,RLFT,≤ 0.25
6,MTYC,≤ 0.25
7,NIVV,≤ 0.25
8,VVWH,≤ 0.25
9,AFEG,≤ 0.25
10,FSWD,≤ 0.25
11,VYQF,≤ 0.25
12,SKIF,2.73
13,ESPA,≤ 0.25
14,WVNR,≤ 0.25
15,KPPG,≤ 0.25
16,QGFR,≤ 0.25
17,RHNH,≤ 0.25
18,WWPL,≤ 0.25
19,EYLD,≤ 0.25
20,LPGV,≤ 0.25
21,MTIY,≤ 0.25
22,WTHF,≤ 0.25
23,PVLV,≤ 0.25
24,KHFK,≤ 0.25

row,Variant,enrichment ratio
1,HAYG,≤ 0.25
2,AIFI,≤ 0.25
3,ERNN,≤ 0.25
4,NFYN,≤ 0.25
5,FYDH,≤ 0.25
6,LQRE,≤ 0.25
7,HNSH,≤ 0.25
8,DSWA,≤ 0.25
9,FFVK,≤ 0.25
10,EKYG,≤ 0.25
11,TMTW,≤ 0.25
12,SLDA,≤ 0.25
13,DQII,≤ 0.25
14,DMCW,≤ 0.25
15,HFRR,≤ 0.25
16,MLRR,≤ 0.25
17,PLAE,≤ 0.25
18,ISCV,1.12
19,HLNV,≤ 0.25
20,VVRN,≤ 0.25
21,SNYR,≤ 0.25
22,SIYR,0.301
23,EMEL,≤ 0.25
24,SRDK,≤ 0.25

row,Variant,enrichment ratio
1,WNWW,≤ 0.25
2,QFNI,≤ 0.25
3,YEVK,≤ 0.25
4,LYHC,≤ 0.25
5,FTLL,11.6
6,NPYW,≤ 0.25
7,AAGK,≤ 0.25
8,IQDF,≤ 0.25
9,WCRP,≤ 0.25
10,SPGH,≤ 0.25
11,RLDK,≤ 0.25
12,NLWF,≤ 0.25
13,IYHQ,≤ 0.25
14,PMPR,≤ 0.25
15,KWPF,≤ 0.25
16,HSLD,≤ 0.25
17,MFVQ,≤ 0.25
18,AAYM,≤ 0.25
19,LISP,≤ 0.25
20,FHDT,≤ 0.25
21,GFIY,≤ 0.25
22,HLAT,≤ 0.25
23,DPVS,≤ 0.25
24,IEND,≤ 0.25

row,Variant,enrichment ratio
1,TFAA,6.15
2,SCQS,≤ 0.25
3,STHA,≤ 0.25
4,APVV,≤ 0.25
5,ECRL,≤ 0.25
6,VFFQ,≤ 0.25
7,DMYL,≤ 0.25
8,DLYY,≤ 0.25
9,DTND,≤ 0.25
10,LDSI,≤ 0.25
11,ASIR,0.563
12,IVLQ,0.372
13,FLKQ,≤ 0.25
14,EAPI,≤ 0.25
15,SCEM,≤ 0.25
16,VYTW,≤ 0.25
17,QLWY,≤ 0.25
18,LTCR,≤ 0.25
19,TAVA,≤ 0.25
20,KHWP,≤ 0.25
21,STFH,≤ 0.25
22,SFIH,≤ 0.25
23,SVCS,8.61
24,VSTA,≤ 0.25

row,Variant,enrichment ratio
1,NEHQ,≤ 0.25
2,AEVW,1.82
3,VMHW,≤ 0.25
4,NGCF,≤ 0.25
5,FFGK,≤ 0.25
6,HGCP,≤ 0.25
7,HKKF,≤ 0.25
8,HRNG,≤ 0.25
9,DTHK,≤ 0.25
10,WDIA,≤ 0.25
11,KDPI,≤ 0.25
12,HGWG,≤ 0.25
13,FEPN,≤ 0.25
14,RITL,≤ 0.25
15,MPID,≤ 0.25
16,NIIL,≤ 0.25
17,PWRY,≤ 0.25
18,DLQE,≤ 0.25
19,EYIP,≤ 0.25
20,WFLF,≤ 0.25
21,YCAE,≤ 0.25
22,HLYI,≤ 0.25
23,MLVN,≤ 0.25
24,RNMA,≤ 0.25

row,Variant,enrichment ratio
1,LFMY,≤ 0.25
2,VDGS,≤ 0.25
3,LGVR,≤ 0.25
4,IYLR,≤ 0.25
5,TRPD,≤ 0.25
6,DDPN,≤ 0.25
7,VIVQ,≤ 0.25
8,YWYG,≤ 0.25
9,TFPF,≤ 0.25
10,HVDD,≤ 0.25
11,DKQR,≤ 0.25
12,KEFQ,≤ 0.25
13,SNQV,9.2
14,LNHQ,≤ 0.25
15,DPAT,≤ 0.25
16,TGSQ,25.1
17,LKPI,≤ 0.25
18,VCTD,≤ 0.25
19,RWMP,≤ 0.25
20,HETK,≤ 0.25
21,NHWC,≤ 0.25
22,HFIF,≤ 0.25
23,GGSR,≤ 0.25
24,GSMV,17.2

row,Variant,enrichment ratio
1,FGHV,≤ 0.25
2,DQFN,≤ 0.25
3,AFVG,4.66
4,ACPI,9.4
5,PLRH,≤ 0.25
6,FRYH,≤ 0.25
7,IPYY,≤ 0.25
8,SKHY,≤ 0.25
9,FARQ,≤ 0.25
10,GDRL,≤ 0.25
11,MNKL,≤ 0.25
12,ENFA,≤ 0.25
13,NQIK,≤ 0.25
14,KHEE,≤ 0.25
15,NREA,≤ 0.25
16,TKYM,25.3
17,RMTM,≤ 0.25
18,EWFL,≤ 0.25
19,RSDL,≤ 0.25
20,TCYC,≤ 0.25
21,HSLM,22.1
22,MVVS,≤ 0.25
23,RQGI,≤ 0.25
24,RESA,≤ 0.25

row,Variant,enrichment ratio
1,KFCR,≤ 0.25
2,EYDF,≤ 0.25
3,VYHK,≤ 0.25
4,ASSS,11.9
5,PGLQ,≤ 0.25
6,MFLW,≤ 0.25
7,DDFI,≤ 0.25
8,NYEH,≤ 0.25
9,ANNA,≤ 0.25
10,WGGL,≤ 0.25
11,YMCD,≤ 0.25
12,MPQD,≤ 0.25
13,ARSE,≤ 0.25
14,PVDE,≤ 0.25
15,AQLY,9.1
16,MGWH,5.63
17,KNLG,≤ 0.25
18,ETVD,≤ 0.25
19,PANW,≤ 0.25
20,GWWW,≤ 0.25
21,ESAL,≤ 0.25
22,RLYD,≤ 0.25
23,SHPV,≤ 0.25
24,WHMM,≤ 0.25

row,Variant,enrichment ratio
1,EFIR,≤ 0.25
2,GLNR,≤ 0.25
3,LWMP,≤ 0.25
4,FNYW,≤ 0.25
5,SKFV,≤ 0.25
6,EIHP,≤ 0.25
7,RYFL,≤ 0.25
8,TKIT,1.06
9,DVDQ,≤ 0.25
10,HDIC,≤ 0.25
11,LAMS,≤ 0.25
12,RCQI,≤ 0.25
13,PFDY,≤ 0.25
14,SRML,4.3
15,RHSP,≤ 0.25
16,GPNG,≤ 0.25
17,IFCL,≤ 0.25
18,HFGQ,≤ 0.25
19,LWEW,≤ 0.25
20,ICMH,≤ 0.25
21,HTLI,0.942
22,KFCY,≤ 0.25
23,IIPT,≤ 0.25
24,SHTD,≤ 0.25

row,Variant,enrichment ratio
1,TCKA,≤ 0.25
2,NNCC,≤ 0.25
3,YLLI,≤ 0.25
4,HLMF,≤ 0.25
5,PILY,≤ 0.25
6,FLQG,≤ 0.25
7,RHRG,≤ 0.25
8,DSAK,≤ 0.25
9,GIPE,≤ 0.25
10,DLQK,≤ 0.25
11,LTVE,≤ 0.25
12,TKAW,≤ 0.25
13,IAVW,≤ 0.25
14,YKCL,0.709
15,YPQS,≤ 0.25
16,DLFV,≤ 0.25
17,LWLN,≤ 0.25
18,KIPF,≤ 0.25

# Reference: a collection of fitness landscapes (doi:10.1126/science.1257360)
